Patent US20230058519A1 (SHANGHAI CELL THERAPY GROUP, published 2023)

Key:
[1] = target: T1, BCMA-His antigen (UniProt Q02223 1-54); assay: SPR, BCMA-his coupled on CM5 chip, TCP as analyte, 1:1 fit
T1 construct: also called BMCA antigen
T1 sequence (looked up): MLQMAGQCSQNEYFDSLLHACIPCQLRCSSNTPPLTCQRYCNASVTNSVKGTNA
Procedure: First the binding affinity of the purified BCMA-TCPs against BMCA antigen was assessed by SPR. BCMA-his antigen was coupled onto a CM5 chip (GE Healthcare Life Sciences), and then a variety of anti-BCMA BsAbs were flowed at the flow rate of 10 uL/min with dissociation time of 900s. Binding kinetics were determined with a 1:1 fit model.

[2] = target: T2, BCMA expressed on cells (UniProt Q02223 1-184, limits assumed); assay: flow cytometry on CHOK1-BCMA+ cells; unit taken from the axis 'Conc.(nM)'
T2 construct: whole, on cells; also called CHOK1-BCMA cell line; BCMA over-expression cell line
T2 sequence (looked up): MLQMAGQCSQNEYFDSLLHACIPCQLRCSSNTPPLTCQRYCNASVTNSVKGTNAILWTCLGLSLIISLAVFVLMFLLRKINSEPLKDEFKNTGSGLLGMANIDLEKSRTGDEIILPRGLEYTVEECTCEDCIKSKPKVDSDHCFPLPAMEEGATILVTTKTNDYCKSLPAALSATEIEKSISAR
Procedure: The binding bioactivity for mesothelin and BCMA over-expressing cells was evaluated by flow cytometry. Stable cell lines were harvested using 0.25% Trypsin.
About 5E5 cells were collected per sample, and the cells were resuspended in 100 μL/well tested antibodies with His-tag. Then the cells were incubated with anti-His-tag antibody (Genscript, China) and Streptavidin-PE (Biolegend, China). The incubation step of each step was performed at 4° C. in the dark for 1 hr, and then the cells were washed 2× with 200 μL PBS buffer. The washed cells were resuspended in 200 μL PBS buffer and the sample was analyzed by FACS.

Kd [1]: 17.9 nM | koff [1]: 0.000482 s⁻¹ | kon [1]: 26900 M⁻¹ s⁻¹ | EC50 [2]: 11.7 nM
B1: TCP002-C (bispecific antibody, human IgG4 S228P)
chain: QLQLGASGGGLVQPGGSLRLSCALSGFTLRELDEFAIGWFRQAPGKEREGVSCISGTGGITHYADSVKGRFTISRDIAKTTVYLQMNSLNSEDTAVYYCAADERCTDRLIRPPTYWGQGTQVTVSSGGGGSAAA[letters of human IgG4 Fc with S228P (EU numbers) left out]GGGGSGGGGSGGGGSQVQLVESGGGLVQPGGSLRLSCAASGSITSIYAIGWYRQAPGKLRELVAAITTSGNTFYRDSVKGRFTISRDNAKNTVSLQMNSLKSEDTAVYDCNGAPWGDHAPLVVSWDQGTQVTVSS
notes: It carries no tag; also called BCMA-TCP
